# Publication PMC4336329 (PLoS ONE, 2015)
# About 14,000 (4.5%) of roughly 310,000 compounds showed an effect of 50% or more. The effect is printed as a negative number. The list shows a part of the results.
# Target: human ether-à-go-go-related gene (hERG) potassium channel (human, UniProt Q12809)
# Test: primary screen, population patch clamp on CHO cells stably expressing hERG
# 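Further: peak tail current of the secondary pulse compared with the same well before compound.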
# human ether-à-go-go-related gene (hERG) potassium channel, sequence (Q12809 whole entry, looked up): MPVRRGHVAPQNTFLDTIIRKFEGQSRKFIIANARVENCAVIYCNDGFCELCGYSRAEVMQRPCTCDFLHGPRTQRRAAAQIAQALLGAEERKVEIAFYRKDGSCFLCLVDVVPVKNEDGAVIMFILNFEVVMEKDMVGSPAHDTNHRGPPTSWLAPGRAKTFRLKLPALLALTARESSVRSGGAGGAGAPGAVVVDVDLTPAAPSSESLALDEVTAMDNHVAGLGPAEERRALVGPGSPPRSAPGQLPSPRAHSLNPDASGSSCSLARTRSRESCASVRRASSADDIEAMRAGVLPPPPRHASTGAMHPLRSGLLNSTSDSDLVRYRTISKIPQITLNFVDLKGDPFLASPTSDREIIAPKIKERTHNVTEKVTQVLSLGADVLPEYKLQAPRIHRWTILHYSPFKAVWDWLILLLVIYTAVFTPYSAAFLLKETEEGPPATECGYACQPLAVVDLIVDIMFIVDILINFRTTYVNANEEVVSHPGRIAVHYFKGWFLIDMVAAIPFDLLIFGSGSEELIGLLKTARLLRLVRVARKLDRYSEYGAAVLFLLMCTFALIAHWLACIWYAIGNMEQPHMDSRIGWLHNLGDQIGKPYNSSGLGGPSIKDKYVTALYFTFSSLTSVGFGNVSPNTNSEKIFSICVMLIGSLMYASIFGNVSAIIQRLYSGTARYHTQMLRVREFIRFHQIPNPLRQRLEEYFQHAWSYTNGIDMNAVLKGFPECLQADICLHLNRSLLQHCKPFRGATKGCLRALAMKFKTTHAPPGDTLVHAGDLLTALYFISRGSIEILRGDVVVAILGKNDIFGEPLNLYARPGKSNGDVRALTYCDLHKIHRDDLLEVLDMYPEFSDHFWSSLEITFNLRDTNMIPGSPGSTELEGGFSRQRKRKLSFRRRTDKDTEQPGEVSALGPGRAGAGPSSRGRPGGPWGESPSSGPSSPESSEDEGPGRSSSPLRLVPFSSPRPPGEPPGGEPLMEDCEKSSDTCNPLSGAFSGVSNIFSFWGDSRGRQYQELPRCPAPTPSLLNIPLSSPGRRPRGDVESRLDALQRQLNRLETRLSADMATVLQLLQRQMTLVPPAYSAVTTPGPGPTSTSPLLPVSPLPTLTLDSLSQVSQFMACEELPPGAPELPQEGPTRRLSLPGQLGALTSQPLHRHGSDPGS
row,Structure (SMILES),"hERG current change (%, negative = inhibition) at 10uM [%]"
1,O=C(CSc1nccc(-c2cccs2)n1)Nc1ccc(F)c(Cl)c1,-19.6
2,CCO[C@H]1OC(C(=O)NCc2ccccc2)=C[C@@H](C2CCCCC2)[C@@H]1CCCO,-19.8
3,COC(=O)c1sc(NC(=O)C2CCCCC2C(=O)O)c(C(=O)OC)c1C (stereo not drawn),17.7
4,COc1cccc(CN(C)CC(=O)Nc2c(C)cccc2C(C)C)c1,-12.2
5,O=C1CC(Cc2ccccc2)C(=O)N1c1ccc(Cl)cn1 (stereo not drawn),1.27
6,Cc1ccc(-n2c(N)c(S(=O)(=O)c3ccccc3)c3nc4ccccc4nc32)cc1,-25.6
7,Cc1nnc(SCC(=O)N2CC(=O)Nc3ccccc32)n1C,8.71
8,CCSCCOC(=O)C1=C(C)NC(=O)NC1c1ccccc1 (stereo not drawn),-0.434
9,COC(=O)C1=C(c2ccc(C(C)=O)cc2)C[C@@H]2CC[C@H]1N2C(=O)NCc1ccco1,-18.3
10,CC/C(C)=N/Oc1nc(C)cc(C)n1,19.1
11,NC(=NCCc1ccccc1)NS(=O)(=O)c1ccccc1F,-25.8
12,Cc1ccc(-n2ncc3c2CCCC3NC(=O)c2ocnc2C)cc1C (stereo not drawn),1.26
13,COc1ccc(NC(=O)CN(C)C(=O)/C=C/c2cn(-c3ccccc3)nc2-c2cccs2)cc1,-1.91
14,Cc1cc(C)c(NC(=O)CSc2nccn2C)c(C)c1,23.9
15,O=c1cc(N2CCOCC2)c2ccccc2o1,-13.9
16,COc1cccc(-n2c(SCc3ccccn3)nc3c(c2=O)SCC3)c1,2.24
17,COC(CNc1cc(=O)oc2ccccc12)OC,13.3
18,Cc1cccc(N2CCN(C(=O)COc3ccc4c(c3)CCC4)CC2)c1C,-12.1
19,COCCCn1c(=O)/c(=C\c2ccccc2OC(F)F)s/c1=C(/C#N)C(=O)NC(C)C,2.59
20,CC(C)CC(OC(=O)CC1Sc2ccccc2NC1=O)C(=O)NC1CCCC1 (stereo not drawn),-22.9
21,CCS(=O)(=O)Nc1cccc(C2=NN(S(=O)(=O)CC)C(c3cccs3)C2)c1 (stereo not drawn),-0.115
22,CC1=C(C(=O)Nc2cccnc2)C(c2cccnc2)n2ncnc2N1 (stereo not drawn),-5.16
23,Cc1c(C(=O)c2ccccc2)c2ccccc2n1C,-7.95

row,Structure (SMILES),"hERG current change (%, negative = inhibition) at 10uM [%]"
1,COc1ccc(C2CC(c3cccs3)=NN2C(=O)CSc2nncn2C)cc1OC (stereo not drawn),4.67
2,O=C(CCC(=O)NNc1nc2ccccc2c2nc(-c3ccccc3)nn12)NCCCN1CCCC1=O,-1.42
3,COc1ccc(OC(=O)c2ccncc2)cc1,3.25
4,O=S(=O)(/N=C(\c1ccccc1)N1CCOCC1)c1cccs1,10.7
5,CCC1Sc2ccc(S(=O)(=O)CCC(=O)Nc3cccc(Br)c3)cc2NC1=O (stereo not drawn),12.2
6,O=C(Nc1ccc(F)c(F)c1)c1ccco1,15.3
7,Cc1cc(=O)oc(C)c1C(=O)NCCc1ccccc1,7.49
8,COc1cc(CN2CCN(Cc3cccc(OC)c3OC)CC2)cc(OC)c1,-34.2
9,CCNC(=O)c1cc2c(=O)n3cccc(C)c3nc2n(CCc2ccccc2)c1=N,-80.3
10,CCCc1cc(=O)[nH]c(NCCc2ccccc2)n1,0.266
11,CCOC(=O)C1Nc2c(F)cc(C)cc2C2c3ccccc3CC12 (stereo not drawn),5.67
12,CCc1ccc(NC(=O)Cc2ccc(-n3cccc3)cc2)cc1,0.973
13,NC(=O)c1ccc(Oc2ccc(Cl)cc2)c([N+](=O)[O-])c1,12.6
14,CCC1Oc2ccccc2N(CC(=O)Nc2ccccc2OC)C1=O (stereo not drawn),-0.294
15,COCCCN1C(=O)c2ccc(C(=O)OCC(=O)N(C)c3ccccc3)cc2C1=O,2.63
16,Clc1ccc2nc(COc3ccccc3)[nH]c2c1,7.7
17,CC(NC(=O)COC(=O)c1cn(-c2ccccc2)nc1-c1cccs1)c1ccccc1 (stereo not drawn),0.115
18,Cc1c(NC(=O)COC(=O)c2cc(-c3cccc4ccccc34)nc3ccccc23)c(=O)n(-c2ccccc2)n1C,1.19
19,CCOc1ccc(C(=O)Nc2ccc(NC(=O)c3ccco3)c(Cl)c2)cc1Cl,15.7
20,CC(=O)N1CCN(S(=O)(=O)c2ccc3c(c2)CCC(=O)N3)CC1,5.04
21,CCC1S/C(=C(\C#N)C(=O)NCc2ccco2)N(c2ccc(Br)cc2)C1=O (stereo not drawn),2.83
22,C=Cn1c(C(=O)O)ccc1-c1ccc(OC)cc1,11.8
23,Cc1cc(S(=O)(=O)Nc2c(C)ccc3nsnc23)ccc1F,-9.06

row,Structure (SMILES),"hERG current change (%, negative = inhibition) at 10uM [%]"
1,COC(=O)c1ccc(N2CCN(CC(=O)c3ccc(C)cc3)CC2)c([N+](=O)[O-])c1,-65
2,C=CCn1cnc2scc(-c3ccccc3)c2c1=O,-6.65
3,O=[N+]([O-])/C(C(=C(Cl)Cl)N1CCOCC1)=C1\NCCO1,7.24
4,C(=N\Nc1ccc(-n2ccnc2)nn1)/c1ccccc1,6.53
5,Cn1cc([N+](=O)[O-])c(C(=O)N/N=C/c2cc3c(cc2Br)OCO3)n1,3.63
6,CCc1cc2c(N=Nc3c(O)[nH]c4ccccc34)ncnc2s1,12.1
7,COc1cc2c(cc1O)[C@@H]1Cc3cc(OC)c(OC)cc3C(C2)N1C,-1.85
8,Cc1nc2ccc(C(=O)O)cc2c2c1CC(CN)O2 (stereo not drawn),17.9
9,COc1cc(C(=O)NC2CCN(CC(=O)Nc3cccc(C)c3C)CC2)cc(OC)c1OC,3.93
10,CCOc1ccccc1N1CCN(S(=O)(=O)c2cc(C)ccc2OC)CC1,9.89
11,CN1/C(=C\C(=S)NC(=O)c2ccccc2Cl)C(C)(C)c2ccccc21,23.6
12,COC(=O)C1=C(CN2CCCc3ccccc32)NC(=O)NC1c1ccc(F)cc1 (stereo not drawn),-15.6
13,COC/C=C/C1=CC2=CC(=O)C(C)(OC(=O)c3cnc4ccccc4n3)C(=O)C2=CN1c1cccc(C#N)c1 (stereo not drawn),0.992
14,Cc1cc(-c2n[nH]c(=S)n2-c2ccccc2)nn1C,7.14
15,Cc1ccc2c(c1)c(=O)c1c3n2CCN(C(=O)CCl)C3CC1 (stereo not drawn),-5.11
16,COc1ccc2c(c1OC)C(=O)OC2Nc1nc2ccccc2s1 (stereo not drawn),12.4
17,O=C1CCCC(O)=C1C(C#Cc1ccccc1)C1=C(O)CCCC1=O,-17.9
18,CCOc1ccc(NS(=O)(=O)c2cc(C)c(C)cc2C)cc1,0.233
19,CCN1CCN(C(=O)c2ccc(Cl)c(S(=O)(=O)N3CCCCCC3)c2)CC1.Cl,-60.9
20,Cc1nc2c(-c3ccccc3)c(C)[nH]n2c(=O)c1Cc1ccccc1,-3.64
21,O=C1C=C(c2ccccc2)CC(c2ccc(F)cc2)C1 (stereo not drawn),-28.2
22,COCCn1c(SCC(=O)Nc2c(C)n(C)n(-c3ccccc3)c2=O)nnc1-c1ccncc1,5.95
23,Cc1ccc(NC(=O)c2cc3ccccc3oc2=O)cc1S(=O)(=O)N(C)C,13.8

row,Structure (SMILES),"hERG current change (%, negative = inhibition) at 10uM [%]"
1,O=c1cc(-c2ccccc2)nc(SCc2ccccc2F)[nH]1,17.3
2,CCOC(=O)C1(CCc2ccccc2)CCN(Cc2ccc(OC)cc2)CC1,-77.5
3,CC(=O)Nc1nc(C)c(Oc2cccc(C(F)(F)F)c2)c(=O)[nH]1,-0.986
4,CCCCOc1cc(C(=O)OCCN(CC)CC)ccc1N.Cl,-53.6
5,Cc1ccc(CN2CCNC(=O)C2CC(=O)O)cc1 (stereo not drawn),9.54
6,CC(OC(=O)c1cccnc1)C(=O)Nc1ccc2c(c1)OCO2 (stereo not drawn),30.2
7,NC(=S)Nc1cccc2cn[nH]c12,12.8
8,COc1ccc(CCC(=O)NCCc2ccc(OC)c(OC)c2)cc1,19.9
9,O=C(Cn1cc(C(F)(F)F)ccc1=O)Nc1ccc(N2CCOCC2)cc1,22
10,COC(=O)C(CCCN1C(=O)c2ccccc2C1=O)(NC(C)=O)c1nnn(C)n1 (stereo not drawn),4.11
11,Cc1cc(C)cc(NC(=O)C(OC(=O)c2cccs2)c2ccccc2)c1 (stereo not drawn),18.7
12,CC1CCN(CC(=O)NC(=O)NCc2ccccc2)CC1,8.38
13,CC12CCC(C(=O)Nc3ccncc3)(CC1O)C2(C)C (stereo not drawn),7.48
14,CCN(CC)C(=O)C1CCCN(Cc2cccc(F)c2)C1 (stereo not drawn),7.43
15,CCC(C)(C)n1nnnc1C(c1cc2cc3c(cc2[nH]c1=O)OCO3)N1CCN(C)CC1 (stereo not drawn),-5.67
16,CC(C)C(C)(C#N)NC(=O)CSc1nnc(-c2ccccc2)o1 (stereo not drawn),-4.63
17,O=C(Nc1ncc(Cc2ccccc2Cl)s1)C1CCCO1 (stereo not drawn),7.65
18,Cc1ccc(NC(=O)Cc2ncc(C(F)(F)F)cc2Cl)cc1Cl,0.534
19,CCOc1ccc(-c2cc(C(=O)NN)[nH]n2)cc1,-6.33
20,Clc1ccc(-c2nc(-c3ccccn3)no2)cc1Cl,-0.434
21,CCOc1ccc(Nc2nc(-c3sc(N)nc3C)cs2)cc1,15.7
